Structures are written as SMILES. In all, about 310,000 compounds went through this assay and about 2,200 (0.71%) showed an effect of 50% or more. The effect is printed as a negative number. This is one part of the list.

Sequence of human ether-à-go-go-related gene (hERG) potassium channel (Q12809 whole entry, looked up): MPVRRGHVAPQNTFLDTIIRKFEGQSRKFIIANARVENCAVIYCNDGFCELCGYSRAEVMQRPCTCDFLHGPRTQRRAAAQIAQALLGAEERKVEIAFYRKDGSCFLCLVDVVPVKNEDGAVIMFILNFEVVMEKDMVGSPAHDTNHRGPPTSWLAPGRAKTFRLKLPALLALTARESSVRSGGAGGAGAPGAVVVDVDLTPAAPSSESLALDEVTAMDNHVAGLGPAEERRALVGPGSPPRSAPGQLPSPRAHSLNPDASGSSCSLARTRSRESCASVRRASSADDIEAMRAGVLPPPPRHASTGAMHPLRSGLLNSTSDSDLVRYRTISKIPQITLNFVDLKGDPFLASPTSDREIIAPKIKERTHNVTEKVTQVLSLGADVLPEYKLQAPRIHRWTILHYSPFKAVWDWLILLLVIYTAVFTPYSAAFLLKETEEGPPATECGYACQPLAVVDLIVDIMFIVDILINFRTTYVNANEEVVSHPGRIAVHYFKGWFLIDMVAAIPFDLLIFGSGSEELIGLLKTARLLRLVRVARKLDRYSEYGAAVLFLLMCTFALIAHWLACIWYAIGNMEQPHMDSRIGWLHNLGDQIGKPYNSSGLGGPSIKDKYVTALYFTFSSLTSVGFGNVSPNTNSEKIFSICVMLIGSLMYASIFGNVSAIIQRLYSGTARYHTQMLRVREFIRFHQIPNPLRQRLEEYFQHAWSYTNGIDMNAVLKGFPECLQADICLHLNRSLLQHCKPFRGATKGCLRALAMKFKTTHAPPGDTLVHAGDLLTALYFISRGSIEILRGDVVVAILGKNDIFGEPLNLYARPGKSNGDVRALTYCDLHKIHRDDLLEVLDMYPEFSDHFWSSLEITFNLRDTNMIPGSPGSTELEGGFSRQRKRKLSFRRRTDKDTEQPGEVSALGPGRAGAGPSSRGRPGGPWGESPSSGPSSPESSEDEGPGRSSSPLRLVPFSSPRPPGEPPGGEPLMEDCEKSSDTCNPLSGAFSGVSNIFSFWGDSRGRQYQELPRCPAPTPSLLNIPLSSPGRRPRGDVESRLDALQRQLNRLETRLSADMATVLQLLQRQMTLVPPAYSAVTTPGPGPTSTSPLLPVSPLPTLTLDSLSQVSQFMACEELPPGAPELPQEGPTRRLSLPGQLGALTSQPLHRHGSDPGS

This experiment addresses human ether-à-go-go-related gene (hERG) potassium channel (human, UniProt Q12809). Description: primary screen, population patch clamp on CHO cells stably expressing hERG.
As for `Cc1ccc(CSCC(=O)NCc2ccco2)cc1`, the “hERG current change (%, negative = inhibition) at 1uM” value was -5.3%.

With `CC(C)(C)NC(=O)C1Cc2ccccc2CN1C(=O)Nc1cccc(Cl)c1` (stereo not shown), the “hERG current change (%, negative = inhibition) at 1uM” value amounted to 8.2%.

Take `O=C(O)CN1CCN(Cc2ccc(F)cc2)C1=O`: the “hERG current change (%, negative = inhibition) at 1uM” value is on record as 14.8%.

For the compound `CCCCC(=O)N/N=C(\C)CC(=O)Nc1ccccc1Br`, the “hERG current change (%, negative = inhibition) at 1uM” value is listed as 11.2%.

In the case of `O=C(c1cccnc1)N1CCC(Oc2ccc(C(=O)N3CCCC(O)C3)cc2)CC1` (stereo not shown), the “hERG current change (%, negative = inhibition) at 1uM” value is listed as 3.9%.

As to `CCOC(=O)CC1=NN(c2ccccc2)C(=O)/C1=C\c1ccc(OC)cc1OC`, the “hERG current change (%, negative = inhibition) at 1uM” value amounted to 4.4%.

On to `CN(C(=O)CCc1ccccc1F)C1CCCN(Cc2ccccc2F)C1` (stereo not shown), for which the “hERG current change (%, negative = inhibition) at 1uM” value is given as 12.7%.

On to `CCCC(=O)Nc1ccccc1NC(=O)CCC`, for which the “hERG current change (%, negative = inhibition) at 1uM” value was 6.22%.

Regarding `c1ccc(-n2nnnc2Cc2nnnn2-c2ccccc2)cc1`, the “hERG current change (%, negative = inhibition) at 1uM” value was found to be 17.1%.

Regarding `O=S(=O)(N/N=C1/CCCc2ccccc21)c1ccc(Br)cc1`, the “hERG current change (%, negative = inhibition) at 1uM” value is listed as -0.0836%.

Consider `COc1ccc(CCN2C(=O)CN(Cc3ccccc3)CC2=O)cc1OC`, for which the “hERG current change (%, negative = inhibition) at 1uM” value is recorded as -0.637%.

As for `Cc1cccc(OCC(=O)N/N=C/c2ccccc2C(=O)O)c1`, the “hERG current change (%, negative = inhibition) at 1uM” value is 13.3%.

With `Nc1nnc2c(C(F)(F)F)nc3ccccc3n12`, the “hERG current change (%, negative = inhibition) at 1uM” value was 14.3%.

For the compound `CCc1ccc(C(=O)CSc2nnc(C)c(=O)[nH]2)cc1`, the “hERG current change (%, negative = inhibition) at 1uM” value turned out to be 4.47%.

Take `COC(=O)c1cccc(Oc2cccc(Cl)n2)c1`: the “hERG current change (%, negative = inhibition) at 1uM” value is listed as 14.3%.

As to `COC(=O)c1ccc(CSc2nc3ccccc3c(=O)n2Cc2ccco2)o1`, the “hERG current change (%, negative = inhibition) at 1uM” value is listed as 0.306%.

For `Cc1ccc(C)c(OCCn2ccnc2)c1`, the “hERG current change (%, negative = inhibition) at 1uM” value was 14.2%.

Take `NS(=O)(=O)c1ccc(CNC(=S)NC2CCCC2)cc1`: the “hERG current change (%, negative = inhibition) at 1uM” value is on record as 6.91%.

Consider `CCC(=O)N1CC(C)C(=O)Nc2ccccc21` (stereo not shown), for which the “hERG current change (%, negative = inhibition) at 1uM” value was determined as 15.3%.

For `Cc1nnc(SCC(=O)NCc2ccco2)n1-c1ccc(F)cc1`, the “hERG current change (%, negative = inhibition) at 1uM” value is given as 1.96%.

For `COC(=O)[C@H]1[C@H](C(=O)OC)[C@@H](C(=O)OC)N(c2ccc(OC)cc2)[C@@H]1C(=O)OC`, the “hERG current change (%, negative = inhibition) at 1uM” value was 33%.

Consider `Cc1c(C(c2ccccc2Br)c2c(C)n(C)n(-c3ccccc3)c2=O)c(=O)n(-c2ccccc2)n1C`, for which the “hERG current change (%, negative = inhibition) at 1uM” value is reported as 11%.

Take `COc1ccc(NC(=O)CCN2C(=O)NC3(CCCC3)C2=O)cc1Cl`: the “hERG current change (%, negative = inhibition) at 1uM” value was found to be 2.81%.

For the compound `CCOc1ccc(S(=O)(=O)N2CCC(C(=O)NCCc3ccc(OC)c(OC)c3)CC2)cc1`, the “hERG current change (%, negative = inhibition) at 1uM” value worked out at 4.11%.

For `COc1ccc(N2CCN(C(=O)c3ccc(N(C)S(=O)(=O)c4ccc(OC)cc4)cc3)CC2)cc1`, the “hERG current change (%, negative = inhibition) at 1uM” value was 11.2%.

Turning to `CCC(=O)N1CCc2cc(S(=O)(=O)NC(C(=O)Nc3cccc(C)n3)C(C)C)ccc21` (stereo not shown), the “hERG current change (%, negative = inhibition) at 1uM” value is 15.7%.

On to `Cc1ccc(-n2c(=O)c3ccccc3n(CC(=O)C(C)(C)C)c2=O)cc1`, for which the “hERG current change (%, negative = inhibition) at 1uM” value was found to be 11.8%.

As to `COc1cccc(N2CCN(C(=O)c3ccc(CS(=O)Cc4ccccc4Cl)o3)CC2)c1` (stereo not shown), the “hERG current change (%, negative = inhibition) at 1uM” value is listed as 15%.

In the case of `COc1cc(C2NC(=S)NC(c3ccccc3)=C2C(C)=O)cc(Cl)c1OCC(=O)O` (stereo not shown), the “hERG current change (%, negative = inhibition) at 1uM” value was determined as 5.45%.

`CCc1ccc(NC(=O)C(=O)c2cn(CC(=O)N3CCCCC3)c3ccccc23)cc1`: the “hERG current change (%, negative = inhibition) at 1uM” value is recorded as 5.86%.

For the compound `CCC(C(=O)Nc1cccc(S(=O)(=O)N(C)c2ccccc2)c1)c1ccccc1` (stereo not shown), the “hERG current change (%, negative = inhibition) at 1uM” value is recorded as 3.67%.

Take `Cn1c(NC(=O)c2ccc(F)cc2)c(-c2cccs2)c(=O)c2ccccc21`: the “hERG current change (%, negative = inhibition) at 1uM” value was 11.7%.

As for `O=C(CSc1nnc(SCc2cccc3ccccc23)s1)Nc1ccc(C(=O)O)cc1`, the “hERG current change (%, negative = inhibition) at 1uM” value came to 17.9%.

As for `O=[N+]([O-])c1cnn2cc(Br)cnc12`, the “hERG current change (%, negative = inhibition) at 1uM” value amounted to 5.98%.

As for `CCOC(=O)c1ccc(NC(=O)COc2ccc(CNC3CCCCC3)cc2OC)cc1`, the “hERG current change (%, negative = inhibition) at 1uM” value stood at 6.89%.

With `COc1cc(C)c(Cc2cnc(N)nc2N)cc1OC`, the “hERG current change (%, negative = inhibition) at 1uM” value stood at 4.47%.

Regarding `CCOc1ccc(/C=C/C(=O)OCC(=O)c2ccccc2OC)cc1OC`, the “hERG current change (%, negative = inhibition) at 1uM” value was 10.9%.

Consider `Cc1cc(C)cc(NS(=O)(=O)c2ccc(NC(=S)Nc3ccccc3)cc2)c1`, for which the “hERG current change (%, negative = inhibition) at 1uM” value is -1.33%.

Regarding `O=[N+]([O-])c1cc(C(F)(F)F)ccc1N1CCC(O)CC1`, the “hERG current change (%, negative = inhibition) at 1uM” value was 10.9%.

With `CC(C)n1c(SCC(=O)Nc2ccccc2N2CCOCC2)nc2c1c(=O)n(C)c(=O)n2C`, the “hERG current change (%, negative = inhibition) at 1uM” value is given as 1.63%.

As for `COc1ccc(S(=O)(=O)N2CCCCC2)cc1NC(=O)C1CC1C` (stereo not shown), the “hERG current change (%, negative = inhibition) at 1uM” value turned out to be 4.31%.

Take `Cc1noc(NS(=O)(=O)c2ccc(NC(=O)COc3ccccc3)cc2)c1C`: the “hERG current change (%, negative = inhibition) at 1uM” value was 0.478%.

With `Cc1ccc(S(=O)(=O)N2CCC(C)CC2)c([N+](=O)[O-])c1`, the “hERG current change (%, negative = inhibition) at 1uM” value is given as 6.38%.

As for `Cc1cc(C)c2c3c(sc2n1)C(c1cccc(F)c1)C(C#N)=C(N)O3` (stereo not shown), the “hERG current change (%, negative = inhibition) at 1uM” value was found to be 0.935%.

Consider `CC1(C)CC(=O)C(C(C2=C(O)CC(C)(C)CC2=O)c2cccnc2)C(=O)C1` (stereo not shown), for which the “hERG current change (%, negative = inhibition) at 1uM” value came out at 6.85%.

On to `CS(=O)(=O)N(CC(=O)Nc1ccccc1Sc1ccccc1)c1cccc(Br)c1`, for which the “hERG current change (%, negative = inhibition) at 1uM” value is given as 0.112%.
